# Data published in PubChem BioAssay AID662 (National Center for Advancing Translational Sciences (NCATS), 2007).
# Values joined by “and” are separate entries in the source; they are usually repeats but may differ in a detail not shown here. Equal values may be shown once. Out of some 71,000 compounds screened, about 1,800 (2.5%) were called active. Inconclusive results, whose numbers are uncertain, are shown with a selection of clear calls. Calls follow the shape of the dose curve; as a rule, active = well fitted activation curve with a large enough effect in the signal ratio, with a control signal flat (not every such curve was filed as active); inconclusive = small, poorly fitted or top-dose-only effect, or effect the other way, or a change in a side signal; inactive = flat fitted curve, though single readings scatter; the % refers to the signal ratio. A potency beside an inconclusive call is a rough fit, not a confirmed value.
# Assay: Cell signaling CRE-BLA (Fsk stim); as to activity change, negative = inhibition: % of control where 0% means no effect
# Conditions: CHO CRE-bla reporter (cAMP response element driving beta-lactamase), forskolin EC10, beta-lactamase ratio
# Method in brief: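 qHTS titration format; CRE-bla CHO reporter; stimulus EC10 NKH 477, a water-soluble forskolin. Read: CCF4 460/530 nm ratio. Potency expressed as AC50 for activators or inhibitors.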
# [1] = activity change, negative = inhibition: at 38.2 µM (top of the series) unless noted
# Potency is read from the fitted curve at half-maximal effect; tags tell the direction and shape of the fitted curve.
structure (smiles),measurement,setting,value
O=c1c(-c2cc(F)cc(F)c2)nc2cncnc2n1Cc1ccccc1Cl,Potency,[1],"inconclusive: 10 µM [rising, partial curve]"
CCOc1ccccc1NC(=O)c1cccc2c1C(=O)N(CCOC)C2,Potency,[1],"inconclusive: 15.8 µM [rising, single point]"
Cc1cc(Nc2cccc(F)c2)n2ncnc2n1,Potency,[1],"inconclusive: 20 µM [rising, single point]"
COC(=O)C1(Cc2ccccc2)C=C2C(=C(C)C(=O)C2C)CN1 (stereo not drawn),Potency,[1],inactive
COc1ccc(-c2cc(C(=O)O)c(C)o2)cc1OC,Potency,[1],"inconclusive: 12.6 µM [rising, single point]"
COc1cccc(-c2nnc(Nc3nc4c(F)cccc4s3)o2)c1,Potency,[1],"inconclusive: 3.16 µM [rising, partial curve]"
N#CCc1c(C#N)c(N)nc(N2CCN(S(=O)(=O)c3ccccc3)CC2)c1C#N,Potency,[1],"inconclusive: 15.8 µM [rising, single point]"
COC(=O)C1=C2SC(C)C(=O)N2C(N)=C(C#N)C1c1ccc(OC)c(OC)c1 (stereo not drawn),Potency,[1],inactive
CC=C(/C(=C/C)c1ccc(O)cc1)c1ccc(O)cc1,Potency,[1],inactive
N/C(CSc1nc(-c2ccccc2)c(-c2ccccc2)o1)=N\O,Potency,[1],"inconclusive: 10 µM [rising, partial curve]"
CCOC(=O)C1CCCN(C(=O)c2cnn3c(C(F)(F)F)cc(-c4ccccc4)nc23)C1 (stereo not drawn),Potency,[1],"inconclusive: 10 µM [rising, partial curve]"
CC(=O)Nc1cc(C(=O)O)ccc1S(=O)(=O)c1ccc(C)cc1,"activity change, negative = inhibition",[1],inconclusive: -1.59%
Cc1ccc(/C(C#N)=C/c2cccc([N+](=O)[O-])c2)cc1,"activity change, negative = inhibition",[1],inactive: 4.79% [at 7.6 µM]
Cn1c(CNC(=O)C(C)(C)C)nc2ccccc21,Potency,[1],inactive
O=c1c[n+]([O-])c2ccccc2n1OCc1c(F)cccc1F,Potency,[1],inactive
O=C(Nc1ccc(Cl)c(Cl)c1)N1CCC(N2CCCCC2)CC1,Potency,[1],inactive
CC(C)(C)c1cc(C(=O)O)c(CN2CCCCC2)o1,"activity change, negative = inhibition",[1],inconclusive: -11.2%
CCOc1ccc2c(c1)N(C(=O)CN1C(=O)CCC1=O)C(C)(C)C=C2C,Potency,[1],"inconclusive: 15.8 µM [falling, single point]"
COc1ccc(NC(=O)C2CCCN2S(=O)(=O)c2ccc3c(c2)CCC(=O)N3)cc1Cl (stereo not drawn),"activity change, negative = inhibition",[1],inconclusive: 27%
Cn1cccc1Cc1nnc(SCC(=O)Nc2nccs2)n1CCc1ccccc1,Potency,[1],inactive
CNC(=O)c1cc2c(=O)n3cccc(C)c3nc2n(C(C)C)c1=N,Potency,[1],active: 10 µM
Cc1nnc(NC(=O)c2ccc3ccccc3c2)o1,"activity change, negative = inhibition",[1],inconclusive: 9.94%
CC1Cc2cc(/C(O)=C3/C(=O)C(=O)N(Cc4ccco4)C3c3cccs3)ccc2O1 (stereo not drawn),Potency,[1],inactive
Cc1noc(C)c1-c1ccc2ncnc(NC3CC3)c2c1,Potency,[1],"inconclusive: 10 µM [rising, partial curve]"
Cc1cc2c(c(=O)n1C)C(Cc1ccccc1)C(C#N)=C(N)O2 (stereo not drawn),Potency,[1],active: 12.6 µM
Cc1cc(/C=C(/C#N)c2cccc(F)c2)c(C)n1-c1cccnc1,Potency,[1],"inconclusive: 2.51 µM [rising, single point]"
C[C@@H]1C=C[C@](Cc2ccccc2)(C(=O)NCC2CC2)N1C(=O)c1ccccc1,Potency,[1],inactive
CCCSc1nnc(Cc2cc(=O)[nH]c(=O)[nH]2)n1-c1cc(C)ccc1C,"activity change, negative = inhibition",[1],inconclusive: 14.8%
COc1ccc(-c2cc(N)n(CCC#N)n2)c(OC)c1,"activity change, negative = inhibition",[1],inconclusive: -24.4%
CCN1C(=O)c2ccccc2S(=O)c2ccc(C(=O)NCCCN3CCCC3=O)cc21 (stereo not drawn),Potency,[1],"inconclusive: 25.1 µM [rising, single point]"
CCCCCCNC(=O)c1c(O)c2ccccc2[nH]c1=O,Potency,[1],inactive
Cc1nc2nc(C)c(CCC(=O)NCCC3=CCCCC3)c(C)n2n1,Potency,[1],"inconclusive: 39.8 µM [falling, partial curve, poor fit]"
C=CCn1c(=O)c(C#N)cc2c(=O)n3ccccc3nc21,Potency,[1],"inconclusive: 7.94 µM [rising, partial curve]"
Cc1ccccc1S(=O)(=O)Cc1ccc(C(=O)N2CCN(c3ccc(F)cc3)CC2)o1,Potency,[1],inactive
O=C(CSc1nc2ccccc2c(=O)n1NC(=O)Cc1ccccc1)NCc1ccco1,Potency,[1],"inconclusive: 15.8 µM [falling, partial curve]"
Cc1nc(NCC2CCCO2)c2oc3ccccc3c2n1 (stereo not drawn),Potency,[1],"inconclusive: 10 µM [rising, partial curve]"
COc1ccc(-c2cc(-c3cc(F)ccc3O)[nH]n2)cc1OC,Potency,[1],inactive
Cc1cc(C(=O)Nc2c(F)cc(F)cc2Br)c(C)o1,Potency,[1],"inconclusive: 3.16 µM [rising, single point]"
COc1ccc(N=c2oc3c(OC)cccc3cc2C(=O)NCc2ccco2)cc1OC,Potency,[1],"inconclusive: 2 µM [rising, full curve, poor fit]"
Cc1cc(C)n(CC(=O)NCc2cc(-c3nn(C)c(=O)c4ccccc34)ccc2C)n1,Potency,[1],"inconclusive: 25.1 µM [rising, single point]"
CCOc1ccc(-n2cc(C(=O)N3CCCCCC3)c3cc(OC)c(OC)cc3c2=O)cc1,"activity change, negative = inhibition",[1],inconclusive: 13%
O=C(Nc1ccc(N2CCOCC2)c(F)c1)c1ccncc1,Potency,[1],inactive
CCOC(=O)N1CCN(C(=O)CSc2nnc(-c3c[nH]c4ccccc34)n2CCOC)CC1,"activity change, negative = inhibition",[1],inconclusive: -9.84%
CCOc1ccc2nc(NC(=O)CSc3nc4c(c(=O)n(C)c(=O)n4C)n3C(C)C)sc2c1,Potency,[1],active: 3.98 µM
CCOc1ccc(-c2n[nH]c(C)c2Oc2ccccc2OC)c(O)c1,"activity change, negative = inhibition",[1],inconclusive: 11.7%
CCOC(=O)c1cc(NC(=O)Nc2ccc(OC)c(OC)c2)c(C)nc1C,Potency,[1],"inconclusive: 12.6 µM [rising, partial curve]"
Cc1nc2cc(C(F)(F)F)ccc2n1C1CCN(CC(=O)NC(C)(C)C)CC1,"activity change, negative = inhibition",[1],inconclusive: 23.7%
COc1ccccc1N1CCN(C(=O)c2ccccc2Oc2ccccc2)CC1,"activity change, negative = inhibition",[1],inconclusive: 11.9%
Cc1ccccc1OC[C@H](O)CO,Potency,[1],inactive
CCCCNC(=O)c1ccc2nc(-c3ccco3)c(-c3ccco3)nc2c1,"activity change, negative = inhibition",[1],inconclusive: 24.8%
O=c1cnc2cnc(N3CCOCC3)nc2n1Cc1cccs1,Potency,[1],"inconclusive: 20 µM [rising, partial curve]"
O=c1cc(O)cc(/C=C\c2ccc(O)c(O)c2)o1,Potency,[1],inactive
CN(C)CCCN1c2ccccc2Sc2ccc(C(F)(F)F)cc21,Potency,[1],inactive
COc1cccc(CSc2nnc(-c3ccc(F)cc3)o2)c1,Potency,[1],"inconclusive: 10 µM [rising, single point]"
Nc1nc(-c2ccccc2)cs1,Potency,[1],inactive
C=CCn1c(O)c(CN2CCN(Cc3ccccc3)CC2)c(C)c(C#N)c1=O,Potency,[1],inactive
Cc1nc2cnc(N(C)C)nc2n(Cc2cccs2)c1=O,Potency,[1],active: 7.94 µM
Cc1nc2ccccc2c(=O)n1N,Potency,[1],inactive
CC1=C(C(=O)OCc2ccc3c(c2)OCO3)C(c2ccc(Cl)cc2)NC(=O)N1 (stereo not drawn),"activity change, negative = inhibition",[1],inconclusive: -14.9%
CCN(CC)CCn1c2ccccc2c2nc(C)sc21,"activity change, negative = inhibition",[1],inconclusive: 27%
C[N+]1(C)CCC(OC(=O)C(c2ccccc2)c2ccccc2)CC1,"activity change, negative = inhibition",[1],inconclusive: -3.75% and inconclusive: -14.6%
Cc1cc(Nc2cccc(C(F)(F)F)c2)n2nc(C)nc2n1,Potency,[1],"inconclusive: 10 µM [rising, partial curve]"
COc1ccc(N(CC(=O)Nc2cccc(C)c2C)S(=O)(=O)c2c(C)n[nH]c2C)cc1,Potency,[1],"inconclusive: 7.94 µM [falling, partial curve]"
O=C(O)C(Cc1ccccc1-c1ccccc1)C(=O)O,"activity change, negative = inhibition",[1],inactive: -14.5% [at 7.6 µM]
CC(C)C(NC(=O)C1CCCCC1)C(=O)NCc1ccccn1 (stereo not drawn),"activity change, negative = inhibition",[1],inconclusive: -4.8%
COc1cccc(-c2nc(NCCc3c[nH]c4ccc(OC)cc34)c3ccccc3n2)c1,"activity change, negative = inhibition",[1],inconclusive: -16%
c1cncc(-c2nn[nH]n2)c1,"activity change, negative = inhibition",[1],inconclusive: -9.73%
O=C(Nc1nnc(C2CC2)s1)C1Cc2ccccc2CN1S(=O)(=O)c1cccs1 (stereo not drawn),Potency,[1],"inconclusive: 2.51 µM [falling, full curve]"
CC(C)(c1cc(Br)c(OCC(Br)CBr)c(Br)c1)c1cc(Br)c(OCC(Br)CBr)c(Br)c1 (stereo not drawn),Potency,[1],inactive
COc1ccc(-c2noc(CCCOc3ccccc3)n2)cc1OC,Potency,[1],"inconclusive: 12.6 µM [rising, single point]"
CC(=O)Oc1ccccc1C(=O)Nc1ncc([N+](=O)[O-])s1,Potency,[1],"inconclusive: 3.16 µM [falling, full curve]"
Cc1[nH]ccc2c1[nH]c1cc(=O)ccc12,"activity change, negative = inhibition",[1],inconclusive: -29.6%
same,"activity change, negative = inhibition",at 17.1 µM (top of the series),inactive: -15.9%
CC(=O)C1=C(C)NC(SCC(=O)c2ccc(Cl)cc2)=C(C#N)C1c1ccco1 (stereo not drawn),"activity change, negative = inhibition",[1],inconclusive: 24.3%
O=C(O)C1C2C=CC(C2)C1C(=O)NC1CCS(=O)(=O)C1 (stereo not drawn),Potency,[1],inactive
Cc1nc2ccc(S(=O)(=O)Nc3ccccc3C)cc2s1,Potency,[1],inactive
COc1ccc(OC)c(-c2oc3ccccc3c(=O)c2O)c1,Potency,[1],inactive
Cc1nn(C)cc1CN(C)C(=O)c1cc2nc(-c3ccco3)cc(C(F)(F)F)n2n1,Potency,[1],active: 12.6 µM
NC(=O)c1oc2ccccc2c1NC(=O)c1ccco1,Potency,[1],"inconclusive: 5.01 µM [rising, partial curve]"
O=C(Nc1ccccc1Cl)c1ccc(S(=O)(=O)N2CCOCC2)cc1,Potency,[1],inactive
Oc1cc(O)c2c(c1)O[C@H](c1ccc(O)c(O)c1)[C@@H](O)C2,"activity change, negative = inhibition",[1],inconclusive: -18.4%
Cc1ccccc1OCC(O)Cn1c(SC(C)C)nc2c1c(=O)[nH]c(=O)n2C (stereo not drawn),"activity change, negative = inhibition",[1],inconclusive: 23.8%
COC(=O)c1ccc(C)c(NS(=O)(=O)c2ccc(OC)cc2)c1,Potency,[1],active: 0.501 µM
